According to PubChem BioAssay AID1963576 (National Center for Advancing Translational Sciences (NCATS), 2024):
In all, about 46,000 compounds went through this assay and about 60 (0.1%) were called active. Another 3% or so got no clear call; they are omitted. Calls follow the shape of the dose curve; as a rule, active = well fitted inhibition curve with a large enough effect; inconclusive = small, poorly fitted or top-dose-only effect; inactive = no such curve, though single readings can be large or run the other way. This is one part of the list.

assay: Primary qHTS assay for Inhibitors of ovarian cancer metastasis using an organotypic tumor microenvironment (TME) model.; also: nearly all actives have a fitted effect of over 65% in size;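 as to activity change, negative = inhibition: plate controls were DMSO wells for no effect and tomatine positive control wells for full effect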; details: SKOV3ip1-GFP adhesion/invasion on 3D omental model, fluorescence; series mostly up to 45.8 µM; activity change, negative = inhibition: at the top concentration
How it was run: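 A 3D layer of primary human omental fibroblasts, mesothelial cells, fibronectin and collagen I, grown 48 hr, received SKOV3ip1-GFP cells in serum-free medium plus compounds at 0.36-46 umol/L. After 2 hr RT and 16 hr 37 C, fixed adherent GFP cells were counted; normalized to DMSO and tomatine.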

Activity change, negative = inhibition, inactive:
O=C(CN1C(=O)C2(CCCC2)NC[C@H]1c1cc(F)cc(F)c1)Nc1ccc2c(c1)C[C@@]1(C2)C(=O)Nc2ncccc21 5.04%, COc1ccc(OCc2ccc(-c3nc(C#N)c(N4CCN(c5cccc(Cl)c5)CC4)o3)o2)cc1 -13%, CCc1ccccc1NC(=O)CSC1=Nc2ccccc2C2=NC(Cc3ccccc3)C(=O)N12 (centres undefined) -18.1%, CCCN(CCC)c1nc(-c2ccccc2F)nc2ccccc12 -2.51%, COc1ccc(-c2nc(SCC(=O)c3ccc(OC)c(Br)c3)n[nH]2)cc1 8.98%, CCC(C(=O)OC)n1cnc2c(cnn2-c2ccc(F)cc2)c1=O (centres undefined) -4.17%, CCc1cccc(NC(=O)C2CCC(CNS(=O)(=O)c3csc(C(N)=O)c3)CC2)c1 (centres undefined) 6.56%, CCOc1cccc(C2c3[nH]c4ccccc4c3CCN2C(=O)CCC2CCCC2)c1 (centres undefined) 9.98%, CSc1ncc(Cl)c(C(=O)Nc2ccc(S(=O)(=O)N3CCCC(C)C3)cc2)n1 (centres undefined) 26.4%, COc1ccc2cc(C(=O)NCc3ccc4c(c3)CCN4C(=O)c3ccccc3)[nH]c2c1 -7.58%, CCn1c(=O)cc(SCC(=O)NCc2ccccc2OC)c2ccccc21 5.02%, Cc1cccc(C(=O)NC(=O)Nc2ccc(-c3cc(C(F)(F)F)nn3-c3ccccc3)cc2)c1 -4.68%, CCc1ccc(CNC(=O)c2cnc3sc(N4CCCCC4)nn3c2=O)cc1 3.29%, Cc1ccc(NC(=O)Cn2cnc3nc4c(cc3c2=O)CCCC4)cc1Cl -18.1%, CC(C)(C)OC(=O)N1CCC(c2c(C(=O)NCc3ccco3)cnn2-c2ccccc2)CC1 -2.3%, CCc1ccc(S(=O)(=O)Nc2cccc(-c3ccc(N4CCC(C)CC4)nn3)c2)s1 4.23%, Cc1cc(NC(=O)NCc2ccc3c(c2)CCN3C(=O)c2ccccc2)ccc1Br 5.13%, CCOc1ccc(S(=O)(=O)c2cn(Cc3ccccc3)c3ccc(OCC)cc3c2=O)cc1 -4.91%, Cc1nn(-c2ccc(F)cc2)c(-n2cccc2)c1C(=O)NCCCN1CCN(c2cccc(Cl)c2)CC1 28.7%, CCOC(=O)c1sc2ccccc2c1S(=O)(=O)N1CCN(c2cccc(C)c2C)CC1 0.658%, Cc1cc(C)c2c(=O)cc(C(=O)Nc3ccc(S(=O)(=O)N(C)Cc4ccccc4)cc3)oc2c1 -7.26%, O=C(Cn1cc(C(=O)c2ccco2)c2ccccc21)Nc1ccccc1Cl -7.18%, O=C(NCc1cccnc1)C(=O)NCC(c1cccnc1)N1CCN(c2ccccc2F)CC1 (centres undefined) 3.96%, Cc1ccc(/C=C/C(=O)Nc2ccc(S(N)(=O)=O)cc2)o1 9.97%, Cc1ccc(-c2cc(NC(=O)COc3ccc(Cl)c(C)c3)on2)cc1 1.03%, Cc1cc(C)c(NC(=O)CN2C(=O)c3cccnc3Oc3ccc(C)cc32)c(C)c1 -3.61%, Cc1ccc(C(c2ccccc2)c2c(C)[nH]c3ccccc23)s1 (centres undefined) -8.01%, Nc1nnc(SCC(=O)Nc2ccccc2)s1 -4.22%, COc1ccccc1CCNC(=O)C(=O)NCC(c1cccs1)S(=O)(=O)c1ccccc1 (centres undefined) 8.45%, CCOC(=O)c1cccc(NC(=O)c2cn(-c3cccc(OC)c3)c(=O)c3ccccc23)c1 -4.5%, Cn1cncc1[C@@](N)(c1ccc(Cl)cc1)c1ccc2c(c1)c(-c1cccc(Cl)c1)cc(=O)n2C -2.23%, Cc1cc(C)c(Cn2c3ccccc3c3cnn(CC(=O)NCc4ccccn4)c(=O)c32)c(C)c1 -25.5%, COc1ccc(-c2cc(C(F)(F)F)nc(-n3nc(C(F)(F)F)cc3C)n2)cc1 -15.7%, Cc1cccc(-c2nc3nc(C)cc(NCc4ccccc4Cl)n3n2)c1 -10.2%, COc1cc(NC(=O)N(Cc2ccco2)C2CCN(C(C)=O)CC2)cc(OC)c1OC -11.9%, Cc1cccc(Cn2c(=O)n(Cc3ccccc3)c(=O)c3oc4ccccc4c32)c1 0.143%, Cc1ccc(Sc2ccc(N3CCC(C(=O)Nc4ccc(C)c(F)c4)CC3)nn2)cc1 4.92%, CC(C)OCCCNC(=O)C(=O)Nc1ccc2nc3n(c(=O)c2c1)CCCCC3 6.79%, O=C(NCC(c1cccs1)S(=O)(=O)c1cccs1)c1ccc(Cl)cc1 (centres undefined) -5.96%, Cc1ccc(-n2c(SCC(=O)NCc3ccccc3)nc3n[nH]c(C)c3c2=N)cc1Cl -1.8%, CCc1ccc(-n2c(N3CCN(c4cccc(Cl)c4)CC3)nc3ccccc3c2=O)cc1 8.09%, CC1CCN(c2oc(-c3ccc(COc4ccccc4)o3)nc2C#N)CC1 5.42%, CC(=O)c1ccc(NC(=O)c2nc(-c3ccccc3)n(-c3ccc(Cl)cc3)n2)cc1 -7.52%, CCOc1ccc(NC(=O)Cn2c(=O)n(Cc3nc(-c4ccccc4)no3)c(=O)c3cc4c(cc32)OCO4)cc1 5.17%, CC(=O)N1CCc2cc(Br)cc(S(=O)(=O)N3CCC(C)CC3)c21 13.3%, Cc1ccc(-c2nc3nc(C)cc(C)n3c2Nc2ccc3c(c2)OCCO3)cc1 -5.47%, CC(C)c1cnc2c(c1SCc1cccc(F)c1)c(=O)n(C)c(=O)n2C 5.6%, Cc1ccc(Cn2ccn(CC(=O)Nc3c(C)cc(C)cc3C)c(=O)c2=O)cc1 -3.73%, Cc1nc2nc(NC(=O)C(C)(C)C)[nH]n2c(=O)c1Cc1ccccc1 -25.8%, CCOC(=O)c1cc2c(=O)n3ccccc3nc2n(CCOC)c1=NC(=O)C(C)(C)Oc1ccc(Cl)cc1 4.08%, COc1cc(NC(=O)C2CCN(S(=O)(=O)c3ccc4c(c3)oc(=O)n4C)CC2)cc(OC)c1 -0.923%, O=C(CSC1=Nc2ccccc2C2=NC(Cc3ccccc3)C(=O)N12)Nc1ccccc1C(F)(F)F (centres undefined) -16.8%, COc1ccc(NS(=O)(=O)c2cc3c(cc2C)NC(=O)CO3)c(OC)c1 6.98%, COc1ccc(NC(=O)Cn2c(=O)oc3cc(S(=O)(=O)NCc4ccccc4)ccc32)c(OC)c1 10.1%, CCCCN(C)CCCNC(=O)Cn1ncc2c3ccccc3n(Cc3ccccc3F)c2c1=O -29.1%, CC(C)NC(=O)Cn1c(=O)nc(-c2ccccc2F)c2cc(Cl)ccc21 -7.91%, CCOc1ccc(CN2C(=O)c3ccccc3Sc3ccc(C(=O)NC)cc32)cc1 -8.83%, Cc1cccc(CNC(=O)c2oc3c(c2C)-c2nn(Cc4cccc(Cl)c4)cc2CC3)c1 -4.57%, Cc1ccc(NC(=O)N2CCC3(CC2)Oc2ccccc2C(=O)N3Cc2ccc(F)cc2)cc1 9.99%, CC(Oc1ccccc1)C(=O)Nc1cccc(-c2cn3cccnc3n2)c1 (centres undefined) 1.19%, CCNC(=O)c1ccc2c(c1)sc1nc(-c3cccc(OC)c3)cn12 -4.12%, COc1ccc(/C=C/c2nc(C#N)c(NCc3ccc(C)cc3)o2)cc1OC -1.83%, Cc1c2cnn(CC(=O)NC(C)C)c(=O)c2c(C)n1Cc1cccc(Cl)c1 -0.528%, CCc1ccc(OC(=O)CSc2nnc(-c3ccc(OC)c(OC)c3)o2)cc1 4.19%, Cc1c(C(=O)OC2CCC(C)CC2)[nH]c2c1C(=O)CC(c1ccc(N(C)C)cc1)C2 (centres undefined) -3.99%, Fc1ccc(-c2cc(-c3nc(-c4ccc(Cl)cc4)no3)[nH]n2)cc1 7.81%, COc1ccc(S(=O)(=O)c2c(C(=O)c3ccc(C)c(C)c3)cnc3ccc(C)cc23)cc1 -1.39%, CCOc1nc(-c2ccccc2)ccc1-c1noc(-c2ccc(C)cc2)n1 -4.96%, O=C(Cn1cc(SCc2cccc(Cl)c2)c2ccccc21)N1CCCCC1 -26.3%, CCOc1ccc(NC(=O)CC2C(=O)N(c3ccccc3)C(=O)N2CCc2sccc2C)cc1 (centres undefined) 4.68%, COC(=O)c1cc(NC(=O)CC2C(=O)OCCN2Cc2ccccc2)cc(C(=O)OC)c1 (centres undefined) -6.59%, Cc1ccccc1CSc1nc2c(sc3ccccc32)c(=O)n1CCCC(=O)NCCCOC(C)C 6.83%, CC(=O)c1ccc(NC(=O)c2nc(-c3ccc(Cl)cc3)n3c2CCCCC3)cc1 -7.15%, CC(C)(C)OC(=O)N1CCC(c2c(C(=O)N3CCN(C(=O)c4ccco4)CC3)cnn2-c2cccc(Cl)c2)CC1 2.04%, COc1ccc(NC(=O)Cn2c(=O)c3ccccc3n3nncc23)cc1Cl 5.4%, NC(=O)N1c2ccccc2CC(=O)c2ccccc21 -13%, CN(c1nnc(NC(=O)Nc2ccccc2C(F)(F)F)s1)C1CCCCC1 -0.656%

outcome, inactive:
O=C(COc1ccc([N+](=O)[O-])cc1)Nc1cccc2cccnc12, O=C(CSc1nc2c([nH]c3ccccc32)c(=O)n1-c1ccc(F)cc1)NC1CCCCC1, COc1cc(Cl)c(C)cc1NC(=O)Cn1ncc2c(=O)oc3ccccc3c21, COc1cc(NC(=O)C2CCCN(S(=O)(=O)c3ccc4c(c3)CCCC(=O)N4)C2)cc(OC)c1 (centres undefined), CCC(Sc1nc2nccnc2c(=O)n1Cc1ccc(F)cc1)C(=O)NC1CCCCC1 (centres undefined), COc1ccc(C(=O)Nc2ccc(OCc3cc(=O)n4ccsc4n3)cc2)cc1OC, Cc1cc(=O)n2nc(N3CCC(C(=O)NCc4ccccc4)CC3)sc2n1, O=C(C1CCN(S(=O)(=O)c2cccc3nonc23)CC1)N1CCN(c2ccccc2F)CC1, CCN1CCN(C(=O)Cn2ncc3c4ccccc4n(Cc4ccccc4)c3c2=O)CC1, O=C(CCS(=O)(=O)c1ccc(Br)cc1)Nc1ccc(Cl)c(C(F)(F)F)c1, Cc1ccccc1NC(=O)C1CCN(C(=O)c2cnn(-c3ccccc3)c2-n2cccc2)CC1, Fc1cc(F)c2ncc3c(-c4ccccc4)nn(-c4cccc(Cl)c4)c3c2c1, Cc1noc(-c2ccc(N3CCC(C)CC3)c([N+](=O)[O-])c2)n1, Cc1cn2c(=O)cc(COc3ccccc3NC(=O)c3ccc(C(C)(C)C)cc3)nc2s1, O=C(NCCc1ccccc1)c1ccc2c(c1)N(Cc1ccc(F)cc1Cl)C(=O)CS2, COc1cccc(OCC(=O)NC2CC(=O)N(c3cccc(OC)c3)C2)c1 (centres undefined), COCc1cc(C)nc2c1C(=O)NC(c1ccc(NC(C)=O)cc1)N2Cc1ccccc1 (centres undefined)
